Data on 108 compounds can be found in PubChem BioAssay AID1240 (Sanford-Burnham Center for Chemical Genomics, 2008).

The structures appear in SMILES notation. Among all 50,000 compounds or so, about 800 (1.6%) showed an effect of 50% or more. This is one part of the list. Peptide text beside a SMILES is read from it. * marks the point of attachment. Tos = Cc1ccc(S(=O)(=O)*)cc1

The test concerns the target Bcl-2-like protein 10 (Homo sapiens) (UniProt Q9HD36). Put plainly: Phenotype converters, Bcl-B/TR3 peptide binding displacement, primary biochemical FP (AID 1240).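 Note: 0% = Bcl-B with tracer peptide and DMSO and 100% = tracer peptide lacking Bcl-B.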 The settings on record: GST-Bcl-B / FITC-TR3 peptide fluorescence polarization; stronger effect = higher value; compound at 3.75 mg/L.
Chain of UniProt Q9HD36 (Q9HD36 whole entry, looked up): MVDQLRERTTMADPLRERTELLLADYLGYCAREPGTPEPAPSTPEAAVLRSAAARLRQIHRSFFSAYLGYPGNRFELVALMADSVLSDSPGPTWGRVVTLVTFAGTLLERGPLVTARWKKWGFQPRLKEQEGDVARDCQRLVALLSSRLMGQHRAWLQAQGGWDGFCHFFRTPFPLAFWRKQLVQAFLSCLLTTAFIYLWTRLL
Regarding `Cc1cccc(N2C(=O)c3ccc(C(=O)O)cc3C2=O)n1`, the displacement was determined as 9.8%. Then `CN(CCO)S(=O)(=O)c1ccc(N)cc1`, with -5.8%; and `O=C1NC(=S)NC(=O)C1=Cc1ccc(N2CCCCC2)c([N+](=O)[O-])c1`, with 20.3%; and `Cc1ccc(C23CC4CC(CC(C(=O)Nc5ccc(F)cc5F)(C4)C2)C3)cc1`, with -3.1%. With `C#CCOc1ccc(/C=C2\C(=O)NC(=O)N(c3ccc(Cl)cc3)C2=O)cc1OCC` the figure was -5.9%; with `Oc1ccc2ccccc2c1CN=Cc1cccnc1`, 31.9%; with `O=C(O)c1cccc(NC(=O)c2cccc(Br)c2)c1`, -3.5%. With `COC(=O)c1cccc(NC(=O)COc2cccc(C)c2C)c1` the figure was -3.2%; with `CN1CCO/C1=C(C#N)\C=C1/C(=O)N(c2c(Cl)cccc2Cl)c2ccccc21`, 67.6%.

Consider `Cc1cc(C(=O)N=Nc2c(O)n(Cc3ccccc3)c3ccc(Br)cc23)n[nH]1`, for which the displacement was found to be 0.1%. Consider `CC(=O)CCc1oc2ccc([N+](=O)[O-])cc2c1-c1ccc(C)o1`, for which the displacement came to 3.5%.

In the case of `CCOC(=O)CNC(c1ccccc1)c1cc(Br)ccc1NC(=O)CN1CCOCC1` (stereo not drawn), the displacement came to 11.2%. With `Cc1ccc(C(=O)CC(=O)c2ccccc2)cc1` the figure was 3.3%.

Consider `Cc1cc(/C=N/NC(N)=S)c(C)n1-c1ccc(Cl)cc1`, for which the displacement is -15.7%. With `CCOC(=O)c1c(C)oc2ccc(OCC(N)=O)cc12` the figure was 10.3%; with `C=CCOc1c(Cl)cc(/C=C2/C(=O)NN(c3ccc(Br)cc3)C2=O)cc1OC`, 5.1%; with `COc1cc(NC(=O)c2cccs2)ccc1NC(=O)c1cc2ccccc2o1`, 3.2%. Consider `CC1CC(=O)NN=C1c1ccc(N2CCOCC2)c([N+](=O)[O-])c1` (stereo not drawn), for which the displacement was -1.7%. Then `FC(F)(F)c1ccc2nnc(-c3ccc(Cl)cc3)n2c1`, with -6.3%; and `CCNC(=O)CNC(=O)CNS(=O)(=O)c1ccc(C)cc1` (Tos-Gly-Gly-NHEt), with 3.5%; and `CCN(CC)CCN1C(=O)C(O)=C(C(=O)/C=C/c2ccccc2)C1c1ccc(OC)c(OC)c1` (stereo not drawn), with -8.4%. With `CCOC(=O)C1=C(C)N=c2s/c(=C\c3ccc(Br)o3)c(=O)n2C1c1ccc(F)cc1` (stereo not drawn) the figure was 11.2%; with `C=CC(=O)NC12CC3CC(CC(C3)C1)C2`, 5.3%; with `CCCCNC(=O)C(=O)NCCCO`, 7.5%. Then `CC(=O)c1ccc(NC(=O)c2ccc(-c3ccc([N+](=O)[O-])cc3)o2)cc1`, with 7.5%; and `COc1ccc(/C(C)=N/NC(=O)CSc2nc(C)cc(C)n2)cc1OC`, with 11.5%. On to `CCCN(CCC)C(=O)c1ccccc1[N+](=O)[O-]`, for which the displacement turned out to be 14.3%. Then `Cc1ccc(-c2nc3ncccc3o2)cc1NC(=O)C(C)C`, with -2.9%. With `CC1=NN(c2ccc(S(N)(=O)=O)cc2)C(=O)/C1=C\c1ccc(-c2cc([N+](=O)[O-])ccc2Cl)o1` the figure was -2.3%; with `Nc1nncn1C(=O)COc1ccccc1`, 10.8%. Then `COc1ccc(Br)cc1/C=C1/SC(=S)N(c2cccc(C(F)(F)F)c2)C1=O`, with 13.7%; and `O=C(O)c1cccc(S(=O)(=O)N(CCO)CCO)c1`, with -5.2%; and `O=C(c1cc(Cl)ccc1[N+](=O)[O-])N1CCN(c2cccc(Cl)c2)CC1`, with -9.3%. With `C/C(=N\NC(=O)c1cc(-c2ccccc2)n[nH]1)c1cccc([N+](=O)[O-])c1`, the displacement is -6%. For the compound `Cc1ccc(NC(=O)C2C3CC/C=C\CCC32)cc1` (stereo not drawn), the displacement is -1.8%. On to `Cc1ccc(C(C)C)c(OCC(=O)Nc2cc(C(F)(F)F)ccc2Cl)c1`, for which the displacement was found to be 5.7%. Then `COC(=O)c1ccc(-c2ccc(/C=C3/SC(=S)N(C)C3=O)o2)cc1`, with 8.3%; and `CCOC(=O)/C(C#N)=C/Nc1ccc2ccccc2c1`, with 15.1%. With `CCOC(=O)C1=C(C)N=c2s/c(=C\c3cc(Br)c(O)c(OC)c3)c(=O)n2C1c1ccc(OC)c(OC)c1` (stereo not drawn) the figure was -85.1%; with `Cc1ccc(S(=O)(=O)Nc2ccccc2C=Nc2c(C)n(C)n(-c3ccccc3)c2=O)cc1`, -6%. Regarding `CCOC(=O)c1c(NC(=O)CNc2ccc(C)cc2)sc2c1CC(C)(C)OC2`, the displacement was -10.6%. With `CCOc1ccc(NC(=O)C(CC(=O)O)Cc2ccccc2)cc1` (stereo not drawn) the figure was 7.9%; with `N/C(=N\OC(=O)COc1ccc(Br)cc1)c1ccncc1`, 12.2%; with `CCSc1nnc(NC(=O)COC(=O)C(CCSC)NC(C)=O)s1` (stereo not drawn), -5.7%. Then `CN(CC(O)c1cccc(O)c1)C(=O)c1ccccc1` (stereo not drawn), with -7.7%. On to `Cc1nc(NC(=O)c2ccc(Cl)cc2[N+](=O)[O-])sc1C`, for which the displacement is -10.4%.

Take `COc1ccc(/C(C)=N\OCc2nc3c4c5c(sc4ncn3n2)CCCC5)cc1OC`: the displacement was 1.2%.

As for `CCOC(=O)c1cc(CC)sc1NC(=O)c1cccc(OCC)c1`, the displacement was -6.4%.

Take `COc1ccc(C(=O)N/C(=C\c2ccc(-c3cccc([N+](=O)[O-])c3)o2)C(=O)NCCCN2CCOCC2)cc1`: the displacement was determined as 4.3%. As to `COc1ccc(C)cc1NC(=O)C(C)Oc1ccc(Cl)cc1Cl` (stereo not drawn), the displacement is -2.7%. Then `O=C(Nc1ccc2nn(-c3ccccc3)nc2c1)c1ccc(Cl)c([N+](=O)[O-])c1`, with 9.6%; and `CC(=O)NC1=NC(=O)/C(=C\c2ccc(-c3ccc(C(=O)O)cc3)o2)S1`, with -27%; and `Cc1ccc(/C=C/C(=O)c2c(C)cc(C)[nH]c2=O)cc1`, with 6.8%. With `CC(C)Oc1ccc(C(=O)NCc2cccnc2)cc1` the figure was -7.2%; with `CC(=O)/C=C1\NC(C)(C)Cc2ccccc21`, -1.7%.

As for `N/C(=N\OC(=O)c1ccc(I)cc1)c1ccccc1`, the displacement was -9.3%. Regarding `O=C(COc1ccc(Cl)cc1)Nc1ccc(I)cc1Cl`, the displacement stood at 4%. With `Cc1cccc(NC(=O)C(=O)NCC(C)O)c1C` (stereo not drawn) the figure was -12.3%.

Consider `Cc1ccc(N(CC(O)CN2CCCCC2)S(=O)(=O)c2ccccc2[N+](=O)[O-])cc1` (stereo not drawn), for which the displacement stood at 5.6%. For the compound `O=C(Nc1ccc2ccccc2c1)c1cccc(Cl)c1Cl`, the displacement is 13.4%.

`O=C(COc1ccc2ccccc2c1)N1CCN(S(=O)(=O)c2ccccc2)CC1`: the displacement is -0.2%. With `Cc1cc(=O)oc2cc(OCc3ccc(Br)cc3)ccc12` the figure was 3.1%; with `O=C1CC(N2CCC(O)CC2)C(=O)N1c1ccc(I)cc1` (stereo not drawn), -4.9%. With `COC(=O)c1c(NC(=O)c2cnccn2)sc2c1CCCCC2` the figure was 5%; with `CN1C(=O)/C(=C/c2ccc(OC(=O)c3ccc(F)cc3)cc2)SC1=S`, -2.1%; with `Clc1cccc(OCCCCCn2ccnc2)c1`, 7.9%. In the case of `CCCCN(CCCC)C(=O)c1ccccc1Cl`, the displacement was -2.9%. With `CN(C)c1cccc(C(=O)Nc2cc(Cl)cc(Cl)c2)c1` the figure was -5.3%; with `COc1ccc(CCN(C(=O)/C=C/C(=O)O)C2CC(=O)N(c3ccccc3)C2=O)cc1` (stereo not drawn), -4.9%; with `CC(=O)NC1=C(N(C)C)C(=O)c2ccccc2C1=O`, -4%. For `CC(=O)Nc1ccc(S(=O)(=O)Nc2ccc(C(=O)Nc3nccs3)cc2)cc1`, the displacement amounted to 7.5%.

In the case of `CCOC(=O)C1=C(C)N=c2s/c(=C\c3sccc3C)c(=O)n2C1c1cc(OC)ccc1OC` (stereo not drawn), the displacement is 10%. As for `COc1ccc(OC)c(-n2c(O)cnc2Nc2nc(C)cc(C)n2)c1`, the displacement worked out at 5.7%. With `CCC12c3ccccc3C(c3ccccc31)C1C(=O)N(c3ccc(C)c(Cl)c3)C(=O)C12` (stereo not drawn) the figure was -11.7%. With `CCOc1cc(C2Nc3ccccc3C(=O)N2c2ccc(Cl)cc2)ccc1O` (stereo not drawn) the figure was 4.5%. As for `O=C1OC(c2ccccc2F)=N/C1=C\c1cccc(I)c1`, the displacement was -0.4%. Then `NS(=O)(=O)c1ccc(NC(=S)Nc2ccccc2)cc1`, with 4.1%; and `COc1ccc(NC(=O)C2(C)CC3C=CC2C3)cc1` (stereo not drawn), with 4.7%. Consider `COc1ccc(N(CC(=O)Nc2ccc(C)c(C)c2)S(C)(=O)=O)cc1Cl`, for which the displacement is -4%. On to `COc1ccc(/C=C/C(=O)NCc2ccc(Cl)cc2)cc1OC`, for which the displacement is -14.2%. Then `C/C(=N\NC(=O)c1ccccn1)c1ccc([N+](=O)[O-])cc1`, with 5.8%; and `Oc1c(Cl)cc(Cl)cc1C=Nc1cccc(C(F)(F)F)c1`, with 2.4%; and `O=C(Nc1ccc(C(=O)N2CCOCC2)cc1)Nc1cccc2ccccc12`, with -7.6%.

Consider `O=C(O)CNS(=O)(=O)c1ccc2c(c1)C(=O)c1cc(S(=O)(=O)NCC(=O)O)ccc1-2`, for which the displacement was -0.6%. As to `Cc1cccc(NC(=O)CSc2nnc(-c3ccccc3)c(-c3ccccc3)n2)c1C`, the displacement is -4.3%. Then `CC(=O)c1c(OC(=O)c2ccco2)ccc2c(C)cc(=O)oc12`, with 15.5%; and `CCn1c2c(c3cc([N+](=O)[O-])ccc31)CCCC2=O`, with 12.9%. Then `C/C(=N\NC(=O)c1cc(C2CC2)[nH]n1)c1ccc(C)cc1`, with -18.4%; and `Clc1cccc(/C=N\N2CCN(c3ccccc3)CC2)c1Cl`, with 1.1%.

`COc1ccc(NC(=O)CN(c2cccc([N+](=O)[O-])c2)S(=O)(=O)c2ccccc2)cc1OC`: the displacement is 14.2%.

In the case of `Cc1ccc(/C(O)=C2\C(=O)C(=O)N(CCCC(=O)O)C2c2ccc(F)cc2)cc1` (stereo not drawn), the displacement was found to be 0.2%.

For `COc1cc(C)c(Nc2ccccc2)c(C)c1`, the displacement is 4.7%. Then `CCCC(=O)C1=C(C(=O)OC)C(C)(C)C/C1=N/OCC`, with -13%; and `Cc1cc(C)c(S(=O)(=O)Nc2cc([N+](=O)[O-])ccc2C)c(C)c1`, with 12.8%; and `O=C(NCCN1CCOCC1)c1cc2nc(-c3ccc(Cl)c(Cl)c3)cc(C(F)(F)F)n2n1`, with 9.2%. With `O=C(Nc1ccccc1)O/N=C/c1c(F)cccc1Cl` the figure was 4.3%; with `COC(=O)C1=C(C)NC(=O)NC1c1ccc(-c2ccccc2)cc1` (stereo not drawn), 4.7%. In the case of `CC(=O)Nc1ccccc1NS(=O)(=O)c1cccc([N+](=O)[O-])c1`, the displacement was 1.1%. Then `O=S(=O)(c1cccc2c(S(=O)(=O)N3CCOCC3)cccc12)N1CCOCC1`, with 6.7%; and `O=C(CSCC(=O)Nc1ccc2ccccc2c1)Nc1ccccc1`, with -15.4%; and `c1ccc(NC2=Nc3ccccc3CCC2)cc1`, with -1.5%. Consider `Cc1cc(=O)oc2cc(OCC(=O)Nc3sc4c(c3C(N)=O)CCC4)ccc12`, for which the displacement was found to be 18%. Consider `COc1ccc(/C=C2\C(=O)NC(=O)N(c3ccc(Cl)cc3)C2=O)cc1C`, for which the displacement came to 4.9%. With `COC(=O)c1cc(NC(=O)c2ccccc2Br)cc(C(=O)OC)c1` the figure was 15%; with `O=C(NCCC1=CCCCC1)c1cc(Cl)ccc1[N+](=O)[O-]`, -8.7%; with `CCCS(=O)(=O)c1c(S(=O)(=O)CCC)c2c(C)cccn2c1C(N)=O`, -9.8%. With `COc1ccc(OCC(=O)Nc2cccc(OC)c2)cc1` the figure was 23.9%.

As to `COC(=O)c1ccccc1NC(=O)C1CCC(C)(C(=O)O)C1(C)C` (stereo not drawn), the displacement is -2.2%.
